# Data published in article PMC6212790.
# The list shows a part of the results. At the low end of the ranking the order means little.
# Target: T1, GST-Rok (full length) (UniProt O34857)
# T1 sequence: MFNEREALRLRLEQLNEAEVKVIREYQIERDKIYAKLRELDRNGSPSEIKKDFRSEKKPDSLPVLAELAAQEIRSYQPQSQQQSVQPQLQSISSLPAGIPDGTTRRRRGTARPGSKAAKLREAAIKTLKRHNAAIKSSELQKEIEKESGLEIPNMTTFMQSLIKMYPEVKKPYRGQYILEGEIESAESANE
# Assay: protein binding microarray;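 further: rank score from −0.5 (least bound) to 0.5 (best bound)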
# Conditions: Rok is a gene silencer of Bacillus subtilis; high values mean tight binding; most listed sequences are background and not binding sites; double strand, one strand shown
row,Sequence,binding signal [E-score]
1,GAAGAGGC,-0.313
2,AAATTGCT,0.287
3,ATACTAAC,0.199
4,AAACACGT,0.0783
5,GCATCAAA,0.115
6,AGACGGTA,0.2
7,GCCAGACC,-0.234
8,AGGAGTCC,-0.0508
9,TGAACACA,-0.0647
10,AACCCACG,-0.24
11,AACGAGAA,-0.0529
12,CCACGCGC,-0.086
13,ATAAGAGC,0.12
14,AACCTACA,0.257
15,ACAAGCGG,-0.0896
16,CAAAAAAA,0.0976
17,GATGGTCA,-0.126
18,ACTAGCTC,0.134
19,TGTTGAAA,0.111
20,GCAGAGCC,-0.292
21,CTCCTTCC,-0.183
22,ATAACCCG,-0.0742
23,GTGCTCCA,-0.203
24,CACGATTA,0.0292
25,CTCCGTAC,-0.139

row,Sequence,binding signal [E-score]
1,GAACCGGC,-0.0826
2,ACTAAGCT,0.198
3,AACACTAC,0.166
4,CTAGCTCC,-0.0709
5,CATCCAGG,-0.152
6,CGCTCCAA,-0.252
7,ACGAACCT,-0.0668
8,GCCCCCCC,-0.341
9,ACCCAGAT,0.0718
10,AGTTGTAG,0.274
11,ACCGCAGC,-0.0419
12,ACTGAGCG,0.116
13,AAGAGGTC,-0.00652
14,AAGCTGGA,-0.134
15,AACTGGAA,-0.0261
16,ATCCGAAA,-0.0355
17,AGGATATC,0.0246
18,AACACATT,0.151
19,GCGCATAA,0.183
20,CAATTGAA,0.101
21,CCATCTCC,-0.168
22,ATGTAGAC,0.257
23,CAGGGCAG,-0.423
24,AGAGGTAT,0.00833
25,CGCCTCCA,-0.0635

row,Sequence,binding signal [E-score]
1,GAACACCA,-0.0539
2,GCTGGCCA,-0.332
3,ATACAACA,0.27
4,CGCGATAG,0.145
5,AAGATGTG,0.000255
6,CGTGGATA,-0.0193
7,AAGGGGTG,-0.386
8,TATTGGGA,-0.172
9,TACATGCA,0.223
10,CTGTTCGA,0.122
11,GATAAACA,0.115
12,AGTTCCAG,0.115
13,AAGAACGA,0.135
14,CCATTTTA,0.153
15,AAACGCCC,-0.192
16,CCTGATTC,0.0458
17,GAACACAA,0.00185
18,CATCAGCG,0.0251
19,TCCGGCAA,-0.141
20,AAGACCCA,-0.047
21,CGACCCCG,-0.371
22,CTGTAACC,-0.068
23,ATCCAGCA,-0.0227
24,GAGAAGCC,-0.225
25,GCGGCCGA,-0.36

row,Sequence,binding signal [E-score]
1,CTCGGAAG,-0.103
2,AAGTCCCG,-0.14
3,AAACTTAA,0.166
4,CAAGGGAG,-0.257
5,AAACAAGA,-0.00313
6,CGAAACAC,0.0369
7,CACTAAAA,0.293
8,CTCATATC,0.0566
9,CGCCAAAC,-0.151
10,TCCGTCAA,0.026
11,GTCGTGAA,-0.0555
12,ACGTCCTG,-0.113
13,AATGTTAC,0.156
14,CAAGGAAA,-0.213
15,CTTGATCC,-0.0954
16,ACTTGCGA,-0.0722
17,CTAAGTAA,0.279
18,ATTTGGTA,0.273
19,CCTGGACC,-0.261
20,CAAGGGGA,-0.407
21,GGAGGCTA,-0.158
22,GACGCTTA,-0.0271
23,AAATTCAT,0.128
24,CTCGGAGC,-0.168
25,CCGCTGAA,-0.065

row,Sequence,binding signal [E-score]
1,AATATGCG,0.178
2,AAGGCCTG,-0.136
3,GAGTGCAA,-0.0314
4,AATAAGCT,-0.0481
5,ACGGGAGA,-0.144
6,GCCCTCGA,-0.397
7,GGCCAACA,-0.0856
8,CCAAACCC,-0.258
9,AAAGATGA,0.00175
10,CAACGCCC,-0.181
11,CGTTGGTC,-0.239
12,CGGGACCA,-0.274
13,GCAATCCC,-0.159
14,AGTGGCGG,-0.184
15,ACCCTAGC,-0.0137
16,AGACGACG,-0.172
17,CTCGTCAG,-0.0781
18,CTTGGCCA,-0.187
19,AAGGAGAA,-0.0852
20,ACAACCCA,-0.102
21,GTAACTGA,0.142
22,ACGACGCG,-0.0374
23,AAGTCGCA,-0.0805
24,CTAGCGTA,0.25
25,ATTCACCG,-0.149

row,Sequence,binding signal [E-score]
1,ACTATAGT,0.409
2,GTCTAATA,0.153
3,CCAACGTC,-0.115
4,CAACACTC,-0.0858
5,ATTTGTTA,0.228
6,AACGTAGG,-0.0335
7,AGTATAAA,0.278
8,ATGTCCTC,-0.197
9,CACTCGCG,-0.218
10,CTCAAGAC,-0.118
11,AATGGTAT,0.309
12,GCAGGGCA,-0.249
13,CCTCAGAC,-0.248
14,AACAGCTT,0.12
15,TAGTCGAA,0.195
16,TCCCACCA,-0.251
17,CGGAGGGC,-0.363
18,TGAGAACA,0.000946
19,ATATATAT,0.471
20,AATGGCCC,0.0524
21,ACGGGGCT,-0.226
22,ACATCCGT,0.00576
23,CACTATAC,0.0744
24,CCACGCCG,-0.307
25,CGGGGCCA,-0.152

row,Sequence,binding signal [E-score]
1,AGGTGAAT,-0.0282
2,ATGGCTTG,-0.172
3,GGGTGTGA,-0.3
4,AATAGTCT,0.0809
5,ACAAGTCA,0.0527
6,GGGTTAAA,0.118
7,ACGCTCAC,-0.0916
8,GGACGGGA,-0.331
9,CGTCAAGC,-0.133
10,CATGCACG,-0.0508
11,AAATCGTA,0.166
12,TTTCCAAA,0.161
13,ATGTACGA,0.296
14,CCTTGCAC,-0.137
15,CCACCTCA,-0.105
16,CGAATTTA,0.2
17,ACTAGGTA,0.289
18,TATACATA,0.37
19,GACCAGGA,-0.349
20,TACTTGGA,0.0443
21,ACCGACCT,-0.0903
22,AGGTGATC,-0.115
23,ACACCGGA,-0.0014
24,ACAAAGGG,-0.00131
25,AGCGCGAT,0.127

row,Sequence,binding signal [E-score]
1,AAGATGCC,-0.0604
2,AAAAGACC,-0.151
3,CGAGTGCA,-0.154
4,CAACATGC,-0.0603
5,TCTCATCA,0.0785
6,GTACATTA,0.262
7,ATTCATTA,0.157
8,ACGATAGG,0.0845
9,ACGCTATG,0.0647
10,ATGGAACA,-0.00856
11,ACGCACCA,-0.218
12,ACTAATAA,0.293
13,CGTTCATA,0.091
14,CATCTTTC,0.0945
15,CCGGCTCA,-0.335
16,GCTGAAGA,-0.128
17,AAATTCCC,0.0369
18,ATTCAGGC,-0.0859
19,CATTGGGA,-0.0383
20,GTCTGATA,0.178
21,AGATATGG,0.0717
22,GCCTTCAC,0.0205
23,AGACGTCC,-0.0839
24,CGACGTTC,-0.11
25,GTTGAAGA,-0.112

row,Sequence,binding signal [E-score]
1,ACCTCTCG,-0.166
2,AACTCAGT,-0.0114
3,AATCTAAG,0.156
4,CAAATGAA,0.175
5,AGACATAT,0.0317
6,TCGTGTAA,0.0386
7,TAATCCGA,0.113
8,CAGCTACA,0.0906
9,TGTAAGAA,0.185
10,CCGGGCGC,-0.233
11,AGGTCCAA,-0.255
12,AATGCCAC,-0.0451
13,TACAATGA,0.113
14,GCGATCGC,-0.215
15,AGAGTGGG,-0.17
16,AGTTCACC,-0.00687
17,TCTGTCAA,-0.21
18,GGACGGCA,-0.34
19,ACTTGCAT,0.0304
20,CTGCTCAA,-0.11
21,CATATAAA,0.175
22,GGGTTGTA,-0.0711
23,GTCGCGTA,0.198
24,AAAATTCG,0.123
25,CACCCTCG,-0.113

row,Sequence,binding signal [E-score]
1,GCATCCAA,0.0302
2,GGACCGAA,-0.113
3,CTTTCTTA,0.104
4,ACTAAACT,0.291
5,GACCACTC,-0.158
6,GTCTGTTA,0.0123
7,ATCACGTA,0.118
8,CATAGGTC,-0.0596
9,ACTTAATA,0.217
10,CTAAAGGA,-0.191
11,GCGGTTTA,-0.035
12,CAACGGTA,0.259
13,GAGGACTC,-0.171
14,AGGCCCAA,-0.28
15,AACTGGGA,-0.293
16,CTTCATGC,0.0306
17,ACATAGAG,0.00988
18,CAATGAGC,-0.187
19,ATGCGAAT,-0.052
20,GTATAATA,0.407
21,ATAATTTC,0.351
22,AAGTACTC,0.165
23,ACGATTTG,-0.0383
24,GAAGCGTC,-0.161
25,CCTTTCGC,-0.199

row,Sequence,binding signal [E-score]
1,AATAGGCT,0.0628
2,CCGGATGA,-0.0393
3,ACGGTGTG,-0.128
4,CGAATCGA,0.0947
5,TTCCCCAA,-0.0604
6,CATGGGAG,-0.291
7,CAAAGCAA,0.116
8,CCGTGCAC,-0.0815
9,CTAAGGAG,-0.136
10,CGCGGACA,-0.0659
11,GGAGAGCC,-0.38
12,CCGGAGTA,-0.00491
13,CGCCGCCA,-0.311
14,AAAGTTGT,0.0305
15,AAGTCCTA,0.0146
16,ATCTCTTA,-0.0024
17,ACAGCAAG,-0.132
18,CATCCGCC,-0.226
19,CGCGCCAG,-0.217
20,AAGGGGAC,-0.318
21,GTTGGTTA,0.26
22,AAAAGCTC,-0.0258
23,GAGGATAA,0.11
24,CGCGATTC,0.126
25,CACCCAGG,-0.361

row,Sequence,binding signal [E-score]
1,CACCGCGG,-0.308
2,ATGCAGTG,0.0262
3,AAAATGAC,-0.0564
4,CTGGACCA,-0.249
5,GCTGTCGA,-0.0234
6,ATAGTTCC,0.135
7,AGAGTGAC,-0.0819
8,CACCAATG,0.0402
9,ACTCTGCG,0.0598
10,ACACAGCG,0.0555
11,ACCCGAGC,-0.124
12,ACAGAACG,0.0952
13,AGCCTCCT,-0.351
14,CCGTTATA,0.156
15,AGACTAGG,0.0924
16,ATCAGGTG,0.12
17,CTTTTATA,0.24
18,TAGGCCTA,-0.0356
19,ACACTATA,0.245
20,GGAAGGGA,-0.339
21,GTATGTTA,0.283
22,GGCTCACC,-0.296
23,CATGAGCG,-0.206
24,CTTACTCA,-0.0171
25,CGCACAGC,-0.265

row,Sequence,binding signal [E-score]
1,CGGATACG,0.0214
2,CCGGGCGA,-0.446
3,TTCCCGAA,-0.0943
4,CAAATAGG,-0.0651
5,AATCGAAA,0.0382
6,GATTCTGC,-0.0394
7,ATTCCACG,0.0366
8,AGTGTCCC,-0.241
9,GGCAACAA,-0.107
10,AATAAGAG,0.143
11,CCCTAACA,-0.1
12,AATGCCGC,0.0861
13,CACCCATC,-0.15
14,CCACAGAC,0.012
15,CATGGCTC,-0.111
16,GTCGAACA,-0.00873
17,AAATAAAA,0.172
18,CATGTATA,0.29
19,TAATGGCA,0.0365
20,TAAGGACA,-0.221
21,CGGGTATA,-0.0343
22,ACGGGACG,-0.214
23,AAGGCATC,0.102
24,CGTGAGAA,0.114
25,CGACCCAG,-0.197

row,Sequence,binding signal [E-score]
1,ATGGACTC,-0.171
2,GAGATTCA,0.0429
3,CCAGACGG,-0.108
4,CCCTACTC,-0.325
5,AGCCTAAA,-0.214
6,CAGAAAGA,-0.119
7,AACACATG,0.0367
8,ACCAATAC,-0.0446
9,AAAGTCAA,0.0624
10,CGCCACAG,-0.245
11,TAGTGTGA,0.0275
12,TAGAATGA,0.211
13,ACTCCCTA,-0.229
14,CAATTGAG,-0.00833
15,CGTCATTC,0.201
16,GTTACGAA,0.0713
17,GGCGGGAA,-0.248
18,AAATTCTG,0.235
19,GCTACCTA,0.243
